The text below walks through data of patent US20190010237A1 (AbbVie / Abbott, published 2019).

The target in the assay is T1, Human PRLR expressed on HEK-293 cells (human, UniProt P16471 25-622).
T1 sequence: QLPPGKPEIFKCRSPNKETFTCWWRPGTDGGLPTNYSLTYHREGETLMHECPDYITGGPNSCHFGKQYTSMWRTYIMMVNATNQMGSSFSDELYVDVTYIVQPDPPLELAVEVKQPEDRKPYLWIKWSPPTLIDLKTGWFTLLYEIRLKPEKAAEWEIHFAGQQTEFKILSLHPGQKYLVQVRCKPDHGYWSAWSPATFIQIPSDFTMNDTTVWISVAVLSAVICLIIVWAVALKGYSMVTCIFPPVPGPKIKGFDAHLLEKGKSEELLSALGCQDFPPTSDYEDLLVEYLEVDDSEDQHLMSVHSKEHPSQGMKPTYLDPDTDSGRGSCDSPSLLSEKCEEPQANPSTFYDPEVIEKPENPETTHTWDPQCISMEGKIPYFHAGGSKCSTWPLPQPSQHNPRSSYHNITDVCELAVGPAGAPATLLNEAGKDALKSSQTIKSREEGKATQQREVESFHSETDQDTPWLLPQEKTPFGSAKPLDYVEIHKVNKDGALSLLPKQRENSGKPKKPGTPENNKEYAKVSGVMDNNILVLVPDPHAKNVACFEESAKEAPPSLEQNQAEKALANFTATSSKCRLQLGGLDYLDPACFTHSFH
Nature of the assay: cell-based or functional assay.

B1: h16f-MMAE antibody drug conjugate (other)
heavy: EVQLVQSGAEVKKPGSSVKVSCKASGYTFTTYWMHWVRQAPGQGLEWIGEIDPSDSYSNYNQKFKDRATLTVDKSTSTAYMELSSLRSEDTAVYYCARNGGLGPAWFSYWGQGTLVTVSS[human IgG1 constant region omitted]
light: DIQMTQSPSSVSASVGDRVTITCKASQYVGTAVAWYQQKPGKSPKLLIYSASNRYTGVPSRFSDSGSGTDFTLTISSLQPEDFATYFCQQYSSYPWTFGGGTKVEIKRTVAAPSVFIFPPSDEQLKSGTASVVCLLNNFYPREAKVQWKVDNALQSGNSQESVTEQDSKDSTYSLSSTLTLSKADYEKHKVYACEVTHQGLSSPVTKSFNRGEC
modifications: MMAE (auristatin) drug-linker conjugated; sites not stated
Take B1: the “6-Day Proliferation Assay IC50 (nM), HEK293/Human PRLR” value amounted to 0.15 nM.
